Measured values reported in the supplement of paper PMC4723716.
± gives the uncertainty stated by the source. Whole data set: some 9,900 compounds, median “viability index relative to DMSO control” near 1, cut for the lowest 2% near 0.85. The list shows a part of the results.

System: Plasmodium falciparum NF54 stage V gametocytes
Assay: viability index relative to DMSO control (fraction); higher = less gametocyte killing
Settings: 2.5 µM, library set: Broad Institute DOS, incubation time: 72 h
Procedure, shortened: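 P. falciparum NF54 stage V gametocytes (serum-free medium, 0.75% gametocytemia, 1.25% hematocrit) were exposed to compound at 2.5 µM for 72 hr at 37°C under low oxygen, then stained with MitoTracker Red CMXRos and saponin for one to two hours. Red particles of 20–70 µm2 in one field per well were counted, and the viability index is that count scaled to the plate mean of solvent-only wells.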

Structure (SMILES)	viability index
O=C(C[C@H]1C[C@H]2c3cc(NC(=O)c4cccnc4)ccc3O[C@H]2[C@@H](CO)O1)NCc1cc(F)ccc1F	0.986 ± 0.07
CCN(C[C@H]1[C@H](c2ccc(-c3cccnc3)cc2)[C@@H](CO)N1C(C)=O)C(C)=O	1.049 ± 0.0067
COc1ccc(C#Cc2ccc([C@@H]3[C@@H](CO)N4C(=O)CN(C(=O)c5ccc(F)cc5)C[C@@H]34)cc2)cc1	1.06 ± 0.053
COc1ccc(NC(=O)N(C)C[C@H]2OCCCC[C@H](C)Oc3ccc(NC(=O)c4ccncc4)cc3C(=O)N([C@H](C)CO)C[C@@H]2C)cc1	1.09 ± 0.013
C[C@@H]1CN([C@@H](C)CO)C(=O)Cc2cc(NS(=O)(=O)c3ccc(Cl)cc3)ccc2O[C@@H]1CN(C)C(=O)Nc1ccc(C(F)(F)F)cc1	1.011 ± 0.01
COc1ccc(C#Cc2ccc([C@H]3[C@@H](CO)N4C(=O)CN(C(=O)c5ccc(F)cc5)C[C@H]34)cc2)cc1	0.996 ± 0.093
O=C(C[C@H]1CC[C@H]2[C@@H](COC[C@H](O)CN2C(=O)Nc2ccccc2)O1)NCc1ccccc1F	1.09 ± 0.024
O=C(NCC[C@@H]1CC[C@@H](NS(=O)(=O)Cc2ccccc2)[C@@H](CO)O1)C1CCCCC1	0.968 ± 0.15
COc1ccc2c3c([nH]c2c1)[C@H](CO)N(C[C@]31CCN(CC1)C(=O)c1ccc2OCOc2c1)C(C)=O	1.027 ± 0.0033
O=C(C[C@H]1CC[C@H]2[C@@H](COC[C@@H](O)CN2C(=O)c2ccc(F)cc2)O1)N1CCCCC1	1.07 ± 0.13
N#C[C@H]1[C@@H](c2ccc(/C=C/c3ccccc3)cc2)[C@@H](CO)N1C(=O)C1CCCC1	1.077 ± 0.0071
C[C@@H]1CN([C@@H](C)CO)C(=O)CCCn2nncc2CO[C@@H]1CN(C)S(=O)(=O)c1ccc(Oc2ccccc2)nc1	1.02 ± 0.063
O=C(Nc1ccccc1)[C@@H]1[C@@H](CO)[C@@H]2Cn3c(ccc(C4=CCCCC4)c3=O)[C@@H]2N1Cc1cocn1	1.02 ± 0.013
Cn1cnc(S(=O)(=O)N2CC[C@@H]3[C@H]2c2cc(C4=CCCCC4)ccc2N[C@@H]3CO)c1	1.088 ± 0.0043
CCC(=O)N1[C@H](CO)[C@H](c2ccc(-c3cccc(OC)c3)cc2)[C@H]1CNC(C)=O	1.01 ± 0.018
COCC(=O)Nc1ccc2c(c1)[C@@H]1C[C@@H](CC(=O)NCc3ccc4c(c3)OCO4)O[C@@H](CO)[C@@H]1O2	1.01 ± 0.047
CC(=O)N1[C@H](CO)[C@@H](c2ccc(C3=CCCCC3)cc2)[C@@H]1CNC(=O)CN(C)C	1.012 ± 0.0042
O=C(C1CCCCC1)N1CC(=O)N2[C@H](CO)[C@H](c3ccc(-c4ccccc4F)cc3)[C@@H]2C1	1.04 ± 0.052
O=C(c1ccc2c(c1)OCO2)N1C[C@@H]2[C@H](c3ccccc31)[C@@H](CO)N2Cc1cccnc1	1.06 ± 0.087
C[C@@H]1CN([C@H](C)CO)C(=O)CCCn2nncc2CO[C@H]1CN(C)S(=O)(=O)c1cn(C)cn1	1.054 ± 0.006
O=C(NC1Cc2ccccc2C1)[C@H]1N[C@H]2c3cccc(=O)n3C[C@H]2[C@@H]1CO	1.08 ± 0.054
COc1ccccc1-c1ccc2c(c1)O[C@H](CN(C)CC1CCOCC1)[C@H](C)CN([C@@H](C)CO)S2(=O)=O	0.981 ± 0.059
O=C(C[C@@H]1CC[C@H](NC(=O)c2cccnc2)[C@H](CO)O1)NCc1ccc(Cl)c(Cl)c1	0.965 ± 0.16

Structure (SMILES)	viability index
COCC(=O)N1CC[C@@H]2[C@@H](CO)Nc3ccc(-c4ccc(C(=O)N(C)C)cc4)cc3[C@@H]21	1.05 ± 0.076
C/C=C/c1ccccc1[C@H]1[C@@H](CO)N(C(=O)Nc2ccccc2F)[C@H]1C#N	1.064 ± 0.0072
Cc1noc(C)c1NC(=O)N1C[C@@H](O)COC[C@H]2O[C@@H](CC(=O)N[C@H]3CCN(Cc4ccccc4)C3)CC[C@@H]21	1.06 ± 0.044
CCS(=O)(=O)N1CCCCN2[C@H](CO)[C@H](c3ccc(-c4ccc(C(=O)N(C)C)cc4)cc3)[C@@H]2C1	1.07 ± 0.16
Cc1noc(C)c1NC(=O)N(C)C[C@H]1Oc2ccc(NC(=O)Cc3cn(C)c4ccccc34)cc2CC(=O)N([C@@H](C)CO)C[C@H]1C	0.941 ± 0.2
COc1cccc(C(=O)N2C[C@H]3[C@@H](c4ccccc42)[C@H](CO)N3C(=O)c2cccc(F)c2)c1	1.01 ± 0.079
O=C(C1CCOCC1)N1CC2(C1)[C@H](c1ccccc1)[C@@H](CO)N2Cc1ccccc1F	1.11 ± 0.044
CCCC#Cc1ccc([C@@H]2[C@@H](CO)N3CCCCN(CCC)C[C@@H]23)cc1	0.997 ± 0.043
C[C@@H]1CN([C@@H](C)CO)C(=O)c2cc(NS(=O)(=O)c3cn(C)cn3)ccc2O[C@@H]1CN(C)S(=O)(=O)c1ccc(F)cc1	0.917 ± 0.059
COc1ccc(S(=O)(=O)Nc2ccc3c(c2)CC(=O)N([C@H](C)CO)C[C@@H](C)[C@@H](CN(C)C(=O)Nc2c(C)noc2C)O3)cc1	1.101 ± 0.0069
CN1C(=O)c2cc(NC(=O)C3CCOCC3)ccc2OC[C@@H]2O[C@@H](CC(=O)NCCc3ccncc3)CC[C@@H]21	1.11 ± 0.019
COc1ccc2c3c([nH]c2c1)[C@H](CO)N(C[C@]31CCN(Cc2cncnc2)CC1)C(=O)CN(C)C	0.991 ± 0.06
CCCNC(=O)N1C[C@]2(CN(CC3CCCCC3)C2)c2c([C@H]1CO)n(C)c1cc(OC)ccc21	1.09 ± 0.06
COc1cccc(C#Cc2ccc([C@H]3[C@H]4CN(C(=O)Cc5cccnc5)CC(=O)N4[C@H]3CO)cc2)c1	1.057 ± 0.0037
C[C@H]1CN([C@@H](C)CO)C(=O)c2cc(-c3ccc(F)cc3)cnc2O[C@H]1CN(C)S(C)(=O)=O	0.997 ± 0.068
COc1cccc(CNC(=O)C[C@@H]2CC[C@@H]3[C@@H](COc4ccc(NS(=O)(=O)c5ccccc5F)cc4C(=O)N3C)O2)c1	1.08 ± 0.036
COC(=O)C[C@H]1CC[C@@H]2[C@H](COc3ccc(NS(=O)(=O)c4ccc(C)cc4)cc3C(=O)N2C)O1	1.16 ± 0.11
O=C(C[C@@H]1CC[C@H](NC(=O)CC2CC2)[C@@H](CO)O1)NCC(F)(F)F	0.984 ± 0.13
COc1ccccc1C#Cc1ccc([C@H]2[C@@H](C#N)N(C(=O)C3CCC3)[C@@H]2CO)cc1	1.05 ± 0.038
COCC(=O)N1[C@@H](CO)[C@@H](c2ccccc2)C12CN(C(=O)c1ccccc1)C2	1.09 ± 0.041
Cc1cc(C(=O)Nc2ccc3c(c2)C(=O)N(C)[C@@H]2CC[C@@H](CC(=O)O)O[C@H]2CO3)no1	1.02 ± 0.052
CCc1cnc(N2[C@@H](C#N)[C@H](c3ccc(C4=CCCCC4)cc3)[C@@H]2CO)s1	1.08 ± 0.022
